In a compilation of properties of binary mixtures (doi:10.1021/je970101l):
The densities may have been worked out from excess volumes.

Test: xn = mol fraction of the nth substance listed
Conditions: 298.15 K, 100 kPa

C=COC(C)=O + COC(=O)OC
Conditions	mass density [kg/m3]
x2 = 0.0442	931.6
x2 = 0.1007	939.1
x2 = 0.1976	952.1
x2 = 0.3893	978
x2 = 0.4333	984
x2 = 0.4874	991.4
x2 = 0.5637	1002
x2 = 0.6625	1015.7
x2 = 0.7073	1021.9
x2 = 0.8836	1046.7
x2 = 0.9354	1054.1

CCCCCCOC(C)=O + COC(=O)OC
Conditions	mass density [kg/m3]
x1 = 0.0071	1060.5
x2 = 0.038	872.2
x2 = 0.1708	886.2
x2 = 0.2782	899.1
x2 = 0.3601	910.2
x2 = 0.4523	924.1
x2 = 0.5246	936.3
x2 = 0.5891	948.3
x2 = 0.6183	954.1
x2 = 0.6649	963.9
x2 = 0.7362	980.4
x2 = 0.7713	989.3
x2 = 0.8148	1001
x2 = 0.882	1021.1
x2 = 0.928	1036.4
x2 = 0.9606	1048.1

CCCCCOC(C)=O + COC(=O)OC
Conditions	mass density [kg/m3]
x1 = 0.0137	1058.6
x2 = 0.0504	877.9
x2 = 0.1365	887.7
x2 = 0.2545	902.4
x2 = 0.331	913
x2 = 0.424	927.1
x2 = 0.4981	939.4
x2 = 0.5552	949.7
x2 = 0.5964	957.5
x2 = 0.6428	966.9
x2 = 0.7112	981.8
x2 = 0.7551	992.1
x2 = 0.7908	1001
x2 = 0.9202	1037.2
x2 = 0.9507	1046.7

CCCCOC(C)=O + COC(=O)OC
Conditions	mass density [kg/m3]
x1 = 0.0175	1058.1
x2 = 0.1566	895.5
x2 = 0.3608	924.6
x2 = 0.483	944.7
x2 = 0.5687	960.3
x2 = 0.6422	974.9
x2 = 0.6887	984.3
x2 = 0.7305	993.4
x2 = 0.8341	1017.8
x2 = 0.9177	1039.7
x2 = 0.9494	1048.5

CCCOC(C)=O + COC(=O)OC
Conditions	mass density [kg/m3]
x2 = 0.0151	885.3
x2 = 0.1409	902.4
x2 = 0.2986	925.7
x2 = 0.3624	935.8
x2 = 0.4388	948.4
x2 = 0.4997	958.8
x2 = 0.5412	966.2
x2 = 0.5692	971.3
x2 = 0.6038	977.7
x2 = 0.6518	986.7
x2 = 0.7065	997.7
x2 = 0.7701	1010.8
x2 = 0.8155	1020.5
x2 = 0.9049	1040.5
x2 = 0.9446	1049.8
x2 = 0.9768	1057.6

CCOC(C)=O + COC(=O)OC
Conditions	mass density [kg/m3]
x2 = 0.0628	903.7
x2 = 0.125	913.1
x2 = 0.4591	966.3
x2 = 0.4946	972.2
x2 = 0.565	984.2
x2 = 0.58	986.8
x2 = 0.6185	993.4
x2 = 0.6665	1001.8
x2 = 0.7914	1024.2
x2 = 0.8767	1039.9
x2 = 0.9168	1047.4

COC(C)=O + COC(=O)OC
Conditions	mass density [kg/m3]
x2 = 0.0129	928.5
x2 = 0.0977	941
x2 = 0.1167	943.8
x2 = 0.1862	953.8
x2 = 0.3486	976.8
x2 = 0.4149	986.1
x2 = 0.4884	996.2
x2 = 0.5256	1001.2
x2 = 0.5642	1006.5
x2 = 0.6279	1015
x2 = 0.6847	1022.6
x2 = 0.8581	1045.2
x2 = 0.9745	1060.1
